T1: UNK ZnF1-3 (human, UniProt Q9C0B0 31-174)
T1 sequence: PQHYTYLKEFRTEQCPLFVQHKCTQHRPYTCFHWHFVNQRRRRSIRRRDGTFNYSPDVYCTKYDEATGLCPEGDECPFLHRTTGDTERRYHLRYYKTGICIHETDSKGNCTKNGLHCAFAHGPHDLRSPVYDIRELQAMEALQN

B1: chr14:66974463:66974464:+_ENSMUSG00000022044_ENSMUST00000074523|mus_hu|FALSE|FALSE (ssRNA)
RNA: GGGAGUUCUACAGUCCGACGAUCUUGUAGGACGACUUAUUCAGGGGAUCGGCCAGGAAGCAGGAGCAGAACAAGGACACCAGCGGGAGCUCCUUCAUCUUCUCUUUGUAGGCAGCAAGGGUCAUGUUUCUGGGAUCUGGUGGCCAACAGAGGAUUGAGCAUCA
B2: 94333749_94369099_1498_3pUTR_ENSMUSG00000074785_ENSMUST00000099337|mouse|control|control (ssRNA)
RNA: GGGAGUUCUACAGUCCGACGAUCUGGUUCUCUCUCGGAGGCUUCGAAGUAUCUGAAUUUUCGGGCAUUUUUUAGGUCCUGAUGAAAUAUCCAGCCAGUUUUCAAAGCUCCCAGCAUGUGUGCAAUCCCCUUGAAAAGUGCACCCAACAGAGGAUUGAGCAUCA
B3: chr8:74858975:74858976:-_ENSG00000154582_ENST00000284811|hu_mus|hu_hu_hu_mus_True|8_38 (ssRNA)
RNA: GGGAGUUCUACAGUCCGACGAUCGACCUUGUAGGUAAAAUACAUGCACACUUUUGAUAGCACAUGUGAGGGGAUCUCUCUAAAAUUGACCUCGUUGGUUUCGUUCUCAGCAAACUGACCUGGACCACUCAACAUGGCCUUUAUCAACAGAGGAUUGAGCAUCA
B4: chr11:102150864:102150865:-_ENSMUSG00000059995_ENSMUST00000137387|mus_mus|motif|central (ssRNA)
RNA: GGGAGUUCUACAGUCCGACGAUCAUUAGUACAGAACCCCCCCACACACAGACACAUGAUAGGAUACAGGGUGGACGACACCGGGCCAGGGUGGGGAGGAUGGGAAUUGAAACCCACACAGCCUGCUGUUAGAGGGAGGGAGUGCAACAGAGGAUUGAGCAUCA
B5: chr11:86532819:86532820:-_ENSMUSG00000047126_ENSMUST00000103186|perfect_dup|FALSE|FALSE (ssRNA)
RNA: GGGAGUUCUACAGUCCGACGAUCCAUGGCUCUGAGGCAUUCUAGGGAAUCUUCAACUGAUAAGGACCCAAAGUAAUUCACUAACCACUCAGGGUUAAGAAGAUGGGUAUGAACAACUGCACGUUUUAUGUCAUAUAAAUCGGUCAACAGAGGAUUGAGCAUCA
B6: chr2:117085994:117085995:+_ENSMUSG00000027349_ENSMUST00000028825|mus_hu|motif|central (ssRNA)
RNA: GGGAGUUCUACAGUCCGACGAUCUGACUUGGGUAUACCAAGUGUAUCAAACAUAGCUUGAACUUCCUGAUAAACUUCACGGUUUUUAUCUAAUUGAGAAUUUUUAUGUUUCUUGUUCUGUAAUAUCUGUGAAGCUUGAAGUUCCAACAGAGGAUUGAGCAUCA
B7: 42882279_42882399_11055_3pUTR_ENSG00000168172_ENST00000307602|human|control|control (ssRNA)
RNA: GGGAGUUCUACAGUCCGACGAUCAAGUCUCUCGGUAGACAAGUUGAAAACUUUGCUAUAUAUGAAUGUAAGAAAAUGGCCAAGUUCACUGGGCAUGGUGGCUCACGCCUAUAAUAAUCCCAGCACUUUGGGAGGCUGAGGCGGCAACAGAGGAUUGAGCAUCA
B8: chr8:38067721:38067722:+_ENSG00000156735_ENST00000287322|hu_hu|motif|central (ssRNA)
RNA: GGGAGUUCUACAGUCCGACGAUCUUUUUUAAUACUCGGAGGAGUACUUUCAUCUGAAGGUACACAUUCUUCAGGAAGACUGCGGCUUUGAUCUUGAUUGUUGGGAUGGUCACUGGUGGCAUUACCAUACAGCUGAGGCUCAGCCAACAGAGGAUUGAGCAUCA
B9: chr11:87793471:87793472:-_ENSMUSG00000020483_ENSMUST00000020775|mus_mus|mus_mus_mus_hu_False|1_38 (ssRNA)
RNA: GGGAGUUCUACAGUCCGACGAUCUGGACUUGAAAAUAAAAGAAUAAGCUGGAUCCCCCACCCCCCCACAUUGUCAACCCUACACGAGAGUUUUGAAUGAUUCAUAAGAAAAUCAGCAGCUCAAACGGCAAUGACCACCCACCCCAACAGAGGAUUGAGCAUCA
B10: chr11:100452861:100452862:-_ENSMUSG00000014195_ENSMUST00000014339|mus_mus|FALSE|FALSE (ssRNA)
RNA: GGGAGUUCUACAGUCCGACGAUCCAUUCGUAAAAUGUCACUGGCCACAAACUGUGCUUCUGGGUAUCGACCAAGCAUUGCUAAACAUUCUGCUUUGAGAAUUUUGAAUCGAUGGCAGGCAGGGGCAAAUUCUAGGGCACGGUCCAACAGAGGAUUGAGCAUCA
B11: chr15:88994910:88994911:-_ENSMUSG00000036606_ENSMUST00000109331|mus_hu|FALSE|FALSE (ssRNA)
RNA: GGGAGUUCUACAGUCCGACGAUCGUUCUCCUCCAGGCUCAUGGCCUGGCGGCAGUCGUAGAAGGGGUACUGGUAGGACGUGAGGAAGAUGUUGCCUCGUCUAAGGAGGAGCUGGAUGGUCACGGCCACGUGGUCCUGGCCUGGCAACAGAGGAUUGAGCAUCA
B12: 34637268_34637388_314_CDS_ENSG00000147955_ENST00000277010|human|control|control (ssRNA)
RNA: GGGAGUUCUACAGUCCGACGAUCCAGCGAGGCGUGCAGAAGGCACAUGGCGCCCAUCCAGCCACCCGCAUUCACGAACACCCACUGCAGCUCCUCGUCGGGCAGCACGUGGCCUGGGUGCAGCCGCCGCAGCUCCACGAUCAGCAACAGAGGAUUGAGCAUCA
B13: chr2:131764077:131764078:+_ENSMUSG00000079037_ENSMUST00000091288|mus_hu|FALSE|FALSE (ssRNA)
RNA: GGGAGUUCUACAGUCCGACGAUCAACAUGCAAAGUUACAAAUAUAGAAAAUAUAAAGUACAUGCAUAUUUCAAAGACCUGUUAAUGGUGUCCACUUUGGAUUCUUACAUGAAACGAUUCAGUGCACAUUGUAAGCCUAAGGACCAACAGAGGAUUGAGCAUCA
B14: chr3:176767854:176767855:-_ENSG00000177565_ENST00000430069|hu_hu|hu_hu_hu_mus_False|8_8 (ssRNA)
RNA: GGGAGUUCUACAGUCCGACGAUCGACAUCCUUGUUACUGGGCACGUCCUGCCCUCCUUCCCGUAUGCAGUGUCUAAGCACGAGCUGCGUAGGGCCACUCGUGCUGUUCUCACUGAGGUUCCAGAUUCUUGCUGUUGAGUCUCCCAACAGAGGAUUGAGCAUCA
B15: chr7:106494041:106494042:-_ENSMUSG00000070436_ENSMUST00000094154|mus_hu|motif|central (ssRNA)
RNA: GGGAGUUCUACAGUCCGACGAUCCUUGGAUUGAUAGCAACAAAGGCUCAUGUUCCCCCUUCCCUCCCUAUCUUUGAAGAACGGAAAAAGGAAGAAACAAAACAAAAAGUUCAUCCCCACAACGCCAGACACGAUGCUUCUUGACAACAGAGGAUUGAGCAUCA
B16: 59759775_59761010_851_CDS_ENSMUSG00000026020_ENSMUST00000027174|mouse|control|control (ssRNA)
RNA: GGGAGUUCUACAGUCCGACGAUCAACCUCUGUUCCCAUAGAUAUCUCUGCAGCUGCUUUCACUUCUGCUUCUACUUCCUCAGACAGGAAUUCAGAGAGAGAGGCAGAUGCAUAGUUCUUCCUGUCCCCAACUUUCUGUAAACACAACAGAGGAUUGAGCAUCA
B17: chrX:35985205:35985206:-_ENSMUSG00000048970_ENSMUST00000058265|mus_mus|FALSE|FALSE (ssRNA)
RNA: GGGAGUUCUACAGUCCGACGAUCUUUGUUAGGGGCUUGCAGAUGGUGAUGCUCAUGGUGGUGCAUUCUGUUUCCAAUCCUAAUGUGGCCUAGCAUAGUGAUCAAGGCACAGAAGAUGCUUCCAAGCAUCACACCCUUCAAAAACAACAGAGGAUUGAGCAUCA
B18: chr9:104324587:104324588:+_ENSG00000155827_ENST00000389120|hu_mus|FALSE|FALSE (ssRNA)
RNA: GGGAGUUCUACAGUCCGACGAUCCUUGCGCUGGCGAGUGUCAUAGCGCGUCUUCACACACUCAAAGCAGAAAACGUGAAAACACUUGGUAAGUACUGCAUCCUUUUUACGCAUGUUACAGCAAGGGCAGGUCAGCCGUGCCUUCAACAGAGGAUUGAGCAUCA
B19: chr2:127629987:127629988:-_ENSMUSG00000027379_ENSMUST00000028858|mus_hu|motif|central (ssRNA)
RNA: GGGAGUUCUACAGUCCGACGAUCACCAGAUGUUUCACACUUUGCUGUGAAUAUAGUUCCUUUUGGAAAAAGUUUCAUAUCGGUACUCUGACCCAGGUCAAUCAGUGCCAAGCCAGCAGAUAAAUCAUCUUCAUCAUCCUGUUCCAACAGAGGAUUGAGCAUCA
B20: chr9:123232447:123232448:-_ENSG00000136861_ENST00000349780|hu_mus|motif|central (ssRNA)
RNA: GGGAGUUCUACAGUCCGACGAUCCAAUUGGAACUGAUUGUGCUCUUCAAGGCAAAUACUCAGAUACGAUGUUUGAUCGCGGUAAAAUGAAAACGGCUCUUCUUCUCGACUCCGAAUCUCACUGAGCUGCUCCUGCAGGGCCUUCAACAGAGGAUUGAGCAUCA
B21: chr2:168997265:168997266:-_ENSG00000198648_ENST00000355999|hu_hu|FALSE|FALSE (ssRNA)
RNA: GGGAGUUCUACAGUCCGACGAUCUUUAUUUCGGGUAACAUCACCCCCUGUUGCUAGGAACGCACUUACCCCAAAAUCUGCUAUUUGUACUGAACCAUCCUCACCCAGAAGAAUAUUACCAGCUUUCAAAUCCCUGUGAAUCUGCAACAGAGGAUUGAGCAUCA
B22: chr1:109605286:109605287:-_ENSG00000197780_ENST00000461096|hu_mus|hu_hu_hu_mus_True|1_78 (ssRNA)
RNA: GGGAGUUCUACAGUCCGACGAUCAAGUUUCAGAGUAACAUUCAGUAACCUCUUUAACAAUUGUAAUCCUUAUUAUAAGCUAAGCAGAAUAAUAAUUUAAUACCGUAAGUGAACUACACACAAAGCCUGAACCGCGAAACUACACAACAGAGGAUUGAGCAUCA

This is one part of the list.

The target of the experiment is T1, UNK ZnF1-3. The experiment in a line: nsRBNS (natural sequence RNA bind-n-seq); RBNS binding buffer (assumed for nsRBNS): 25 mM Tris pH 7.5, 150 mM KCl, 3 mM MgCl2, 0.01% Triton X-100, 500 ug/ml BSA, 20 U/ml SUPERase-In, 4 C; UNK is unkempt and MSI1 is Musashi-1; names of the RNAs are library labels; protein concentration not given here; high values mean tight binding.
In turn, B1 registered a binding signal of 2.32 enrichment R.

In the case of B2, the binding signal was found to be 0.923 enrichment R.

Take B3: the binding signal turned out to be 0.501 enrichment R.

The molecule B4 gave a binding signal of 1.79 enrichment R.

In the case of B5, the binding signal was 1.15 enrichment R.

In turn, B6 came in with a binding signal of 0.188 enrichment R.

In turn, B7 registered a binding signal of 1.57 enrichment R.

In the case of B8, the binding signal is 0.67 enrichment R.

On to B9, for which the binding signal was 2.2 enrichment R.

For B10, the binding signal turned out to be 1.28 enrichment R.

Take B11: the binding signal came to 0.877 enrichment R.

The molecule B12 showed a binding signal of 0.719 enrichment R.

B13: the binding signal turned out to be 1.55 enrichment R.

Turning to B14, the binding signal came to 0.397 enrichment R.

The molecule B15 gave a binding signal of 1.06 enrichment R.

For the molecule B16, the binding signal turned out to be 0.616 enrichment R.

Molecule B17 came in with a binding signal of 0.824 enrichment R.

For the molecule B18, the binding signal was 0.671 enrichment R.

As to B19, the binding signal turned out to be 0.908 enrichment R.

Turning to B20, the binding signal was 0.749 enrichment R.

B21 displayed a binding signal of 1.09 enrichment R.

The molecule B22 came in with a binding signal of 0.661 enrichment R.

(Values after publication PMC12136788.)
